Bacterial growth in Mueller-Hinton broth at 37 °C with the drug at the dose given, alone or with nitroxoline. Checkerboards on E. coli BW25113: OD600 at the end of exponential growth as a fraction of no-drug wells. Colistin series: OD595 at 10.75 h as a fraction of the colistin-free well. 1 = full growth, lower = more inhibition. No active / inactive call per well. Checkerboard doses stop near each drug's IC75, and their values pile up at 1, as if capped there. Colistin and gentamicin are mixtures; one drawing stands for each.
System: Escherichia coli BW25113
Assay: growth relative to no-drug wells (fraction of no-drug control); higher = more growth, less inhibition
Method: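 8 x 8 checkerboard in cation-adjusted Mueller-Hinton broth at 37 °C; OD600 at the end of exponential growth as a fraction of no-drug wells, two biological replicates.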

C[C@H]1[C@H](NC(=O)/C(=N\OC(C)(C)C(=O)O)c2csc(N)n2)C(=O)N1S(=O)(=O)O [Aztreonam] + Oc1ccc([N+](=O)[O-])c2cccnc12 [nitroxoline]
growth
Details | nitroxoline concentration 0.072 µg/ml | nitroxoline concentration 0.135 µg/ml | nitroxoline concentration 0.198 µg/ml | nitroxoline concentration 0.261 µg/ml | nitroxoline concentration 0.324 µg/ml | nitroxoline concentration 0.387 µg/ml | nitroxoline concentration 0.45 µg/ml
0.008 µg/ml | 0.982 | 0.974 | 0.936 | 0.877 | 0.87 | 0.796 | 0.638
0.015 µg/ml | 0.958 | 0.93 | 0.941 | 0.892 | 0.869 | 0.784 | 0.651
0.022 µg/ml | 0.88 | 0.887 | 0.884 | 0.87 | 0.821 | 0.836 | 0.604
0.029 µg/ml | 0.746 | 0.634 | 0.85 | 0.926 | 0.86 | 0.807 | 0.639
0.036 µg/ml | 0.287 | 0.465 | 0.657 | 0.762 | 0.769 | 0.727 | 0.562
0.043 µg/ml | 0.0476 | 0.0868 | 0.193 | 0.492 | 0.529 | 0.498 | 0.44
0.05 µg/ml | 0.0152 | 0.0431 | 0.0544 | 0.0682 | 0.127 | 0.212 | 0.19

CC1(C)S[C@@H]2[C@H](/N=C/N3CCCCCC3)C(=O)N2[C@H]1C(=O)O [Mecillinam] + Oc1ccc([N+](=O)[O-])c2cccnc12 [nitroxoline]
growth
Details | nitroxoline concentration 0.136 µg/ml | nitroxoline concentration 0.255 µg/ml | nitroxoline concentration 0.374 µg/ml | nitroxoline concentration 0.493 µg/ml | nitroxoline concentration 0.612 µg/ml | nitroxoline concentration 0.731 µg/ml | nitroxoline concentration 0.85 µg/ml
0.0008 µg/ml | 1 | 0.9978 | 0.733 | 0.405 | 0.48 | 0.366 | 0.305
0.0013 µg/ml | 1 | 0.973 | 0.751 | 0.58 | 0.462 | 0.343 | 0.283
0.0015 µg/ml | 1 | 0.967 | 0.782 | 0.557 | 0.493 | 0.379 | 0.295
0.0025 µg/ml | 1 | 1 | 0.868 | 0.591 | 0.448 | 0.3772 | 0.296
0.003 µg/ml | 1 | 1 | 0.9744 | 0.62 | 0.506 | 0.345 | 0.303
0.005 µg/ml | 0.9971 | 1 | 0.9114 | 0.708 | 0.5 | 0.392 | 0.337
0.006 µg/ml | 0.909 | 0.835 | 0.667 | 0.514 | 0.42 | 0.357 | 0.34

CN(C)c1ccc(O)c2c1C[C@H]1C[C@H]3[C@H](N(C)C)C(O)=C(C(N)=O)C(=O)[C@@]3(O)C(O)=C1C2=O [Minocycline]
nitroxoline concentration 0 µg/ml
Details | growth
0.0125 µg/ml | 1
0.0215 µg/ml | 1
0.025 µg/ml | 1
0.043 µg/ml | 1
0.05 µg/ml | 1
0.086 µg/ml | 1
0.1 µg/ml | 1

CCC(C)CCCC(=O)N[C@@H](CCN)C(=O)N[C@H](C(=O)N[C@@H](CCN)C(=O)N[C@H]1CCNC(=O)[C@H]([C@@H](C)O)NC(=O)[C@H](CCN)NC(=O)[C@H](CCN)NC(=O)[C@H](CC(C)C)NC(=O)[C@@H](CC(C)C)NC(=O)[C@H](CCN)NC1=O)[C@@H](C)O (some centres undefined) [Colistin] + Oc1ccc([N+](=O)[O-])c2cccnc12 [nitroxoline]
growth
Details | nitroxoline concentration 0.136 µg/ml | nitroxoline concentration 0.255 µg/ml | nitroxoline concentration 0.374 µg/ml | nitroxoline concentration 0.493 µg/ml | nitroxoline concentration 0.612 µg/ml | nitroxoline concentration 0.731 µg/ml | nitroxoline concentration 0.75 µg/ml
0.0798 µg/ml | 0.942 | 0.893 | 0.879 | 0.701 | 0.498 | 0.485 | 0.299
0.1499 µg/ml | 0.544 | 0.441 | 0.399 | 0.0369 | 0 | 0 | 0
0.2199 µg/ml | 0.0287 | 0 | 0 | 0 | 0.000965 | 0 | 0.00164
0.2899 µg/ml | 0.00579 | 0 | 0 | 0.00438 | 0 | 0 | 0.000241
0.3599 µg/ml | 0 | 0.000674 | 0 | 0 | 0 | 0 | 0.00372
0.43 µg/ml | 0 | 0 | 0 | 0.00191 | 0.00202 | 0.00655 | 0.000674
0.5 µg/ml | 0 | 0 | 0 | 0 | 0.000899 | 0 | 0

COc1cc(Cc2cnc(N)nc2N)cc(OC)c1OC [Trimethoprim] + Oc1ccc([N+](=O)[O-])c2cccnc12 [nitroxoline]
growth
Details | nitroxoline concentration 0.12 µg/ml | nitroxoline concentration 0.225 µg/ml | nitroxoline concentration 0.33 µg/ml | nitroxoline concentration 0.435 µg/ml | nitroxoline concentration 0.54 µg/ml | nitroxoline concentration 0.645 µg/ml | nitroxoline concentration 0.75 µg/ml
0.0224 µg/ml | 0.884 | 0.946 | 1 | 1 | 0.9964 | 0.8545 | 0.814
0.042 µg/ml | 0.714 | 0.841 | 1 | 0.993 | 0.866 | 0.757 | 0.6972
0.0616 µg/ml | 0.512 | 0.628 | 0.807 | 0.805 | 0.769 | 0.655 | 0.6183
0.0812 µg/ml | 0.235 | 0.381 | 0.499 | 0.52 | 0.556 | 0.5565 | 0.517
0.1008 µg/ml | 0.111 | 0.192 | 0.527 | 0.494 | 0.437 | 0.464 | 0.45
0.1204 µg/ml | 0.107 | – | 0.447 | 0.409 | 0.407 | 0.4193 | 0.411
0.14 µg/ml | 0.093 | – | 0.357 | 0.357 | 0.36 | 0.357 | 0.393

CC[C@H]1OC(=O)[C@H](C)[C@@H](O[C@H]2C[C@@](C)(OC)[C@@H](O)[C@H](C)O2)[C@H](C)[C@@H](O[C@@H]2O[C@H](C)C[C@H](N(C)C)[C@H]2O)[C@](C)(O)C[C@@H](C)CN(C)[C@H](C)[C@@H](O)[C@]1(C)O [Azithromycin]
nitroxoline concentration 0 µg/ml
Details | growth
0.0718 µg/ml | 1
0.1349 µg/ml | 1
0.1979 µg/ml | 0.913
0.2609 µg/ml | 0.901
0.3239 µg/ml | 0.819
0.387 µg/ml | 0.718
0.45 µg/ml | 0.719

C[C@H]1COc2c(N3CCN(C)CC3)c(F)cc3c(=O)c(C(=O)O)cn1c23 [Levofloxacin] + Oc1ccc([N+](=O)[O-])c2cccnc12 [nitroxoline]
growth
Details | nitroxoline concentration 0.136 µg/ml | nitroxoline concentration 0.255 µg/ml | nitroxoline concentration 0.374 µg/ml | nitroxoline concentration 0.493 µg/ml | nitroxoline concentration 0.612 µg/ml | nitroxoline concentration 0.731 µg/ml | nitroxoline concentration 0.85 µg/ml
0.0005 µg/ml | 0.869 | 0.743 | 0.576 | 0.506 | 0.463 | 0.3119 | 0.243
0.0009 µg/ml | 0.888 | 0.747 | 0.623 | 0.383 | 0.455 | 0.319 | 0.268
0.0013 µg/ml | 0.92 | 0.774 | 0.507 | 0.499 | 0.423 | 0.294 | 0.24
0.0017 µg/ml | 0.87831 | 0.732 | 0.5023 | 0.344 | 0.368 | 0.301 | 0.254
0.0022 µg/ml | 0.844 | 0.8 | 0.564 | 0.333 | 0.2793 | 0.251 | 0.251
0.0026 µg/ml | 0.868 | 0.66 | 0.424 | 0.382 | 0.303 | 0.263 | 0.254
0.003 µg/ml | 0.929 | 0.641 | 0.358 | 0.4 | 0.262 | 0.299 | 0.232

CC[C@H]1OC(=O)[C@H](C)[C@@H](O[C@H]2C[C@@](C)(OC)[C@@H](O)[C@H](C)O2)[C@H](C)[C@@H](O[C@@H]2O[C@H](C)C[C@H](N(C)C)[C@H]2O)[C@](C)(OC)C[C@@H](C)C(=O)[C@H](C)[C@@H](O)[C@]1(C)O [Clarithromycin]
nitroxoline concentration 0 µg/ml
Details | growth
0.958 µg/ml | 0.952
1.7983 µg/ml | 0.913
2.6387 µg/ml | 0.861
3.479 µg/ml | 0.851
4.3193 µg/ml | 0.785
5.1597 µg/ml | 0.787
6 µg/ml | 0.89

CCN1CCN(C(=O)N[C@@H](C(=O)N[C@@H]2C(=O)N3[C@@H]2SC(C)(C)[C@@H]3C(=O)O)c2ccccc2)C(=O)C1=O [Piperacillin] + Oc1ccc([N+](=O)[O-])c2cccnc12 [nitroxoline]
growth
Details | nitroxoline concentration 0.12 µg/ml | nitroxoline concentration 0.225 µg/ml | nitroxoline concentration 0.33 µg/ml | nitroxoline concentration 0.435 µg/ml | nitroxoline concentration 0.54 µg/ml | nitroxoline concentration 0.645 µg/ml | nitroxoline concentration 0.75 µg/ml
1.1176 µg/ml | 0.876 | 0.665 | 0.75 | 0.815 | 0.699 | 0.611 | 0.526
2.098 µg/ml | 0.893 | 0.878 | 0.9019 | 0.834 | 0.721 | 0.57 | 0.5124
3.0784 µg/ml | 0.551 | 0.631 | 0.819 | 0.735 | 0.537 | 0.27 | 0.119
4.0588 µg/ml | 0.562 | 0.547 | 0.647 | 0.565 | 0.299 | 0.0517 | 0.0617
5.0392 µg/ml | 0.412 | 0.429 | 0.433 | 0.345 | 0.0864 | 0.0444 | 0.0599
6.0196 µg/ml | 0.19 | 0.191 | 0.327 | 0.183 | 0.0622 | 0.0504 | 0.0487
7 µg/ml | 0.029 | 0.0325 | 0.174 | 0.113 | 0.081 | 0.0535 | 0.0385

O=C(O)c1cn(C2CC2)c2cc(N3CCNCC3)c(F)cc2c1=O [Ciprofloxacin]
nitroxoline concentration 0 µg/ml
Details | growth
0.0005 µg/ml | 0.942
0.0008 µg/ml | 0.904
0.001 µg/ml | 0.9293
0.0016 µg/ml | 0.835
0.0019 µg/ml | 0.792
0.0033 µg/ml | 0.469
0.0038 µg/ml | 0.337

Oc1c(I)cc(Cl)c2cccnc12 [Clioquinol] + Oc1ccc([N+](=O)[O-])c2cccnc12 [nitroxoline]
growth
Details | nitroxoline concentration 0.136 µg/ml | nitroxoline concentration 0.255 µg/ml | nitroxoline concentration 0.374 µg/ml | nitroxoline concentration 0.493 µg/ml | nitroxoline concentration 0.612 µg/ml | nitroxoline concentration 0.731 µg/ml | nitroxoline concentration 0.85 µg/ml
0.0938 µg/ml | 1 | 1 | 0.777 | 0.556 | 0.548 | 0.442 | 0.347
0.1625 µg/ml | 1 | 1 | 0.738 | 0.559 | 0.502 | 0.478 | 0.281
0.1875 µg/ml | 1 | 1 | 0.868 | 0.637 | 0.554 | 0.491 | 0.319
0.325 µg/ml | 1 | 1 | 0.962 | 0.71 | 0.582 | 0.47 | 0.387
0.375 µg/ml | 1 | 1 | 0.934 | 0.688 | 0.583 | 0.437 | 0.308
0.65 µg/ml | 1 | 1 | 0.908 | 0.643 | 0.558 | 0.52 | 0.302
0.75 µg/ml | 1 | 1 | 0.751 | 0.605 | 0.579 | 0.383 | 0.336
